Laboratory results as given in publication PMC4336329 (PLoS ONE, 2015).
Among all 310,000 compounds or so, about 2,200 (0.71%) showed an effect of 50% or more. The effect is printed as a negative number. The list shows a part of the results.

Molecular target: human ether-à-go-go-related gene (hERG) potassium channel (human, UniProt Q12809)
Experiment: primary screen, population patch clamp on CHO cells stably expressing hERG

Sequence of human ether-à-go-go-related gene (hERG) potassium channel (Q12809 whole entry, looked up): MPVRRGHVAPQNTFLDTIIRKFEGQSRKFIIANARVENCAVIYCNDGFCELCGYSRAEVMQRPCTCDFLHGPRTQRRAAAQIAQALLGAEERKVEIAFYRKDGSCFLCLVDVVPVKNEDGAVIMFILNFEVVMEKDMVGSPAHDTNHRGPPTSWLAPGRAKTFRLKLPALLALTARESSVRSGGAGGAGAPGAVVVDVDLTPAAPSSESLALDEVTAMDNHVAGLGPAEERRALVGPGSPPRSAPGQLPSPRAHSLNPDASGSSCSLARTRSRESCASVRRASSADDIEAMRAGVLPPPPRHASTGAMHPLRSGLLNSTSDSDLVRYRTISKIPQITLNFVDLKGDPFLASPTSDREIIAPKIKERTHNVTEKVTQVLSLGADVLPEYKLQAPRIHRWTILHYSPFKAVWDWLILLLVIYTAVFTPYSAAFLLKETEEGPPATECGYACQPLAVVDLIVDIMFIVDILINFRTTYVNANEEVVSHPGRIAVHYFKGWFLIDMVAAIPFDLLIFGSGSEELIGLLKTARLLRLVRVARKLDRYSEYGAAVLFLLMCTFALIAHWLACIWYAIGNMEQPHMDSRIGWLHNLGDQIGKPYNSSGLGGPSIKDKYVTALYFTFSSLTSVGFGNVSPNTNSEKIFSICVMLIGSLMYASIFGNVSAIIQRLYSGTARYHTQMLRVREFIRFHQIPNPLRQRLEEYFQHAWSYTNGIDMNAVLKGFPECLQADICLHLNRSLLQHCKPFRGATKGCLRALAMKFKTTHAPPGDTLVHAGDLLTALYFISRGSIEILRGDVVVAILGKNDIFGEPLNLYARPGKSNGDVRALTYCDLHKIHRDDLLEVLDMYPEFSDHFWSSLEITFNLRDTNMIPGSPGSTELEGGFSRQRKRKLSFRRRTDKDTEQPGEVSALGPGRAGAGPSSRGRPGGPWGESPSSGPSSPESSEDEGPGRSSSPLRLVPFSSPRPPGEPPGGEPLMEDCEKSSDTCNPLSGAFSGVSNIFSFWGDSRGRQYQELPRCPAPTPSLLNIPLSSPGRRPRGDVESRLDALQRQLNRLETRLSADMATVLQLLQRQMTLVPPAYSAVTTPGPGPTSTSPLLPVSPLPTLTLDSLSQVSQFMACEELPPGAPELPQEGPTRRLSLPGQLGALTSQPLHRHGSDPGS

| SMILES | hERG current change (%, negative = inhibition) at 1uM |
| --- | --- |
| CC(=O)C1=C(O)C(=O)N(CCC(=O)O)C1c1ccccc1[N+](=O)[O-] (stereo not shown) | 15.8% |
| CCn1c(SCC(=O)Nc2c(C#N)cnn2-c2ccccc2)nnc1-c1cccs1 | 3.24% |
| Cc1ccccc1N1C(=O)CC(=O)NC1=O | 9.05% |
| CCOC(=O)c1cn(CC(=O)Nc2cccc(Cl)c2C)nn1 | 15.4% |
| [S-]c1nnc(-c2ccc(Br)cc2)n1-c1ccccc1.[Zn+2] | 15.1% |
| CCCCOc1cc(C(=O)OCCN(CC)CC)ccc1N | -28.4% |
| N#C[C@H]1C2OC2c2ccccc2N1C(=O)c1ccccc1 (stereo partly shown) | 8.79% |
| Cc1ccc(CN2CCSc3ccc(C(=O)NCCCN4CCOCC4)cc32)cc1 | 4.33% |
| COc1cccc(/C=C2\Oc3ccc(O)cc3C2=O)c1O | 10.3% |
| CCOc1ccc(CN2C(=O)c3ccccc3Sc3ccc(C(=O)NCCCN4CCOCC4)cc32)cc1 | 9.26% |
| Cc1onc(-c2ccccc2Cl)c1C(=O)Nc1ccc(S(=O)(=O)N2CCCC2)cc1 | 13.3% |
| CCN(CC)S(=O)(=O)c1cccc(-c2nnc(SCCCC(=O)c3ccc(F)cc3)o2)c1 | 8.68% |
| Cc1ccc(O)c(C(=O)c2cnn(-c3ccc(S(=O)(=O)N4CCOCC4)cc3[N+](=O)[O-])c2)c1 | 12.9% |
| Cc1ccc(SCC(=O)NCC2COc3ccccc3O2)cc1 (stereo not shown) | -0.327% |
| COc1cc(OC)c(OC)cc1CNC(C)C(O)c1ccccc1.Cl (stereo not shown) | 17.5% |
| COc1cccc(C2C3=C(N=c4s/c(=C\c5ccc(OCC(=O)O)cc5)c(=O)n42)c2ccccc2CC3)c1 (stereo not shown) | 9.38% |
| O=C(Nc1ccc(N2CCOCC2)cc1)c1ccc([N+](=O)[O-])o1 | 9.82% |
| O=[N+]([O-])c1ccc(N2CCNCC2)cc1NCc1ccco1 | -1.74% |
| Nc1cccc(-c2cn3cccnc3n2)c1 | 11.1% |
| CCCCCCCCCCSc1n[nH]c(NC(C)=O)n1 | 11.7% |
| Cc1ccc(SCCNC(=O)c2ccc(C)c([N+](=O)[O-])c2)cc1 | -5.33% |
| CN(CCC1CCOCC1)C(=O)CC1C(=O)NCCN1Cc1ccoc1 (stereo not shown) | 11.2% |

| SMILES | hERG current change (%, negative = inhibition) at 1uM |
| --- | --- |
| CCOc1ccc(NC(=O)CSc2nnc(Cc3cccn3C)n2-c2ccc(F)cc2)cc1 | -14.9% |
| COc1ccc(NC(=O)N2CCCC2C(=O)Nc2ccc(C)cc2)cc1 (stereo not shown) | 1.14% |
| C=CCn1c(SCC(=O)Nc2ncc(Cc3cc(Cl)ccc3Cl)s2)nnc1-c1ccncc1 | 12% |
| O=C(NNc1cccc(Cl)n1)Nc1cccc(C(F)(F)F)c1 | 10.9% |
| CC(C)CNC(=S)NNC(=O)c1ccc2c(c1)OCO2 | 6.48% |
| CCN1CCN(S(=O)(=O)c2ccc(OC)c(NC(=O)c3ccccc3)c2)CC1 | -32.8% |
| COc1cccc2sc(/N=C/N(C)C)nc12 | 15.4% |
| COc1cccc(NC(=O)CSC(N)=O)c1 | 16.4% |
| Cc1ccccc1/C=N/Nc1nc2ccccc2c(=O)n1O | 15.3% |
| O=C(CCCn1c(=O)[nH]c2ccsc2c1=O)N1CCCCC1 | 15.3% |
| Cc1cc(C(=O)N2CCC(Cc3ccccc3)CC2)ccc1[N+](=O)[O-] | -5.63% |
| O=C(NCCc1cccc(F)c1)/C(=C/c1cccnc1)NC(=O)c1ccccc1 | 1.11% |
| COC(=O)C1=C(C)NC(=O)NC1c1ccc([N+](=O)[O-])o1 (stereo not shown) | 11.6% |
| O=S(=O)(Nc1cc(S(=O)(=O)N2CCOCC2)ccc1O)c1ccc2c(c1)OCCCO2 | 6.82% |
| NNS(=O)(=O)c1ccc(Cc2ncc(C(F)(F)F)cc2Cl)s1 | 8.52% |
| O=C(Nc1ccc(F)c(Cl)c1)c1cncs1 | 15.8% |
| O=C(O)CCCCCCCCCCP(=O)(c1ccccc1)c1ccccc1 | 7.21% |
| CCOC(=O)C[N+]1(C)CCN(C(C)=O)CC1.[Br-] | 6.33% |
| BrC(=C\c1ccccc1)/C=N/Nc1nc(N2CCOCC2)nc(N2CCOCC2)n1 | 4.53% |
| COc1ccc(-c2nc3ccccc3n2Cc2ccccc2)cc1 | -9.89% |
| O=S(=O)(/N=C(/Nc1ccccn1)c1ccccc1)c1ccc(F)cc1 | 12.8% |
| CC1(C)C=Cc2c(ccc3c2OC[C@@H](c2ccc(O)cc2O)C3)O1 | 5.48% |

| SMILES | hERG current change (%, negative = inhibition) at 1uM |
| --- | --- |
| CC(C)(CC(=O)N1CCN(c2ccc(Cl)cc2)CC1)CC1=NS(=O)(=O)c2ccccc2N1 | -19.6% |
| CCC(=O)N(Cc1ccco1)c1nc(-c2cc(OC)ccc2OC)cs1 | 12.4% |
| O=C(O)C(F)(F)F.c1cn2c(NC3CCCCC3)c(-c3ccc(SC4CCCCC4)cc3)nc2cn1 | 6.83% |
| CC1=C(C(=O)Nc2cc(C(=O)N3CCN(c4cccc(C)c4C)CC3)ccc2C)SCCO1 | 11.9% |
| COc1cccc(C(=O)OCCN2CCCCC2)c1.Cl | -2.55% |
| O=C1CC(O)(C(F)F)Oc2ccc3ccccc3c21 (stereo not shown) | 6.09% |
| COCCN(CC(=O)Nc1cccc(C)c1)S(=O)(=O)c1ccc(S(=O)(=O)N2CCCC2)cc1 | -4.44% |
| COc1cc(OC)c(OC)cc1CN1CCN(C(=O)c2cccc3ccccc23)CC1.O=C(O)C(=O)O | 13% |
| COc1ccc(/C=C/c2nc3sc4c(c3c(=O)o2)CCC4)cc1 | 6.24% |
| COc1ccccc1N(C)S(=O)(=O)c1ccc(Cl)c(C(=O)Nc2ccncc2)c1 | -14.4% |
| CCOP(=O)(/C(C#N)=C(\C)O)c1ccccc1 (stereo not shown) | 4.29% |
| CC(c1cccnc1)N(C(=O)Nc1ccccc1)C1CCCCC1 (stereo not shown) | 9.28% |
| O=C(CCN1C(=O)NC2(CCCC2)C1=O)Nc1cccc(S(=O)(=O)N2CCOCC2)c1 | 13.9% |
| Cn1cccc1/C=N/NC(=O)C(O)c1ccccc1 (stereo not shown) | 9.98% |
| O=C(CSc1ccc(-c2ccncc2)nn1)c1ccccc1 | 28.3% |
| NCCCC[C@H]1CNC(=S)N1CCCCC1CCCCC1 | -1.35% |
| CCN(c1ccc(NC(=O)COC(=O)c2ccc(C)c(S(=O)(=O)N3CCOCC3)c2)cc1)C(C)C | 12.7% |
| CC(C)(C)[C@]1(O)C[C@@H]2OC(=O)C[C@@]23C(=O)O[C@@H]2OC(=O)[C@H](O)[C@]213 | 16.7% |
| Cc1cc(C)cc(N(CC(=O)NCC2CCCO2)C(=O)CCC(=O)Nc2nccs2)c1 (stereo not shown) | 11.3% |
| COc1ccc(-c2nc(C#N)c(NCCCN(C)C)o2)cc1OC | 2.47% |
| O=C(NCC(c1cccs1)N1CCOCC1)c1cc([N+](=O)[O-])ccc1Cl (stereo not shown) | 1.28% |
| CCO[C@H]1OC(C(=O)O)=C[C@@H](C)[C@@H]1CCCO | 12.7% |

| SMILES | hERG current change (%, negative = inhibition) at 1uM |
| --- | --- |
| CCOc1cccc(C(=O)NNC(=O)CCC(=O)O)c1 | 11.2% |
| O=C(O)C[C@H]1c2cc(C(F)(F)F)ccc2S(=O)(=O)N1C1CCN(Cc2ccccc2)CC1 | 8.77% |
| O=[N+]([O-])c1ccccc1N=Nc1ccc(O)cc1 | 12.1% |
| CN1C(=O)c2ccccc2N(C)C1c1ccccc1Cl (stereo not shown) | 17.4% |
| O=C(Cn1nnc2ccccc21)c1ccc(Br)cc1 | 9.61% |
| CCCCC(=O)NC(=S)Nc1ccccc1C(=O)Nc1ccccc1 | -4.33% |
| Cc1cccn2cc(CSc3ccccc3N)nc12 | 2.65% |
| Cc1n[nH]c(C)c1S(=O)(=O)N1CCCC(C(=O)N2CCN(c3ccc(Cl)cc3)CC2)C1 (stereo not shown) | -47.1% |
| CCOc1ccc(N(CC(=O)NC(C)C)C(=O)CCC(=O)Nc2ccccn2)cc1 | 9.6% |
| COc1cccc(NC(=O)CSc2nc3ccccc3c(=O)n2C)c1 | 9.06% |
| O=C(NC(=S)Nc1ccccc1Cl)c1cncc(C#Cc2ccccc2)c1 | 14.6% |
| Cc1ccc(NC(=O)CSc2nnc(-c3ccccn3)n2N)cc1F | -9.31% |
| CC1C=CCC2C(=O)N(c3ccc(OC(=O)c4cccs4)cc3)C(=O)C12 (stereo not shown) | 12.1% |
| COc1ccc2nc(NC(=O)c3cccs3)sc2c1 | 12.4% |
| COc1ccc(NC(=O)Cn2c(C)cc(=O)c3cccc(OC)c32)cc1 | 10.4% |
| O=C(O)c1ccccc1C(=O)Nc1ccc(-c2csc(-c3ccccc3)n2)cc1 | 14.3% |
| CN(C)C(CNC(=O)c1ccco1)c1cccs1 (stereo not shown) | 7.62% |
| COc1ccc(-c2noc(CSc3nc4ccccc4c(=O)n3-c3ccccc3)n2)cc1OC | 11.8% |
| COCCNc1oc(-c2ccco2)nc1S(=O)(=O)c1ccccc1 | 8.44% |
| CCCCC1CCC(c2nc(-c3cccnc3)no2)CC1 (stereo not shown) | -2.41% |
| CCCN1C2CCCC1CC(NC(=O)c1ccccc1OCC)C2 (stereo not shown) | -9.33% |
| CCN1CCN(Cc2ccc(C)cc2)CC1 | -2.75% |
